Article PMC6919601, “Identification of Plasmodium dipeptidyl aminopeptidase allosteric inhibitors by high throughput screening” (PLoS ONE, 2019)
The campaign covered roughly 110,000 compounds. About 230 (0.21%) showed an effect of 50% or more. The list shows a part of the results.

These molecules were tested against DPAP1 (Plasmodium falciparum, UniProt Q8IIJ9) (assay: primary screen, percent inhibition; read by cleavage of a fluorogenic dipeptide substrate; higher = more effect of the substance).
Parameters: species or system P. falciparum D10 trophozoite lysates; single well
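Also: 30 min substrate incubation versus DMSO and 10 µM JCP410 controls.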

Chain of DPAP1 (Q8IIJ9 whole entry, looked up): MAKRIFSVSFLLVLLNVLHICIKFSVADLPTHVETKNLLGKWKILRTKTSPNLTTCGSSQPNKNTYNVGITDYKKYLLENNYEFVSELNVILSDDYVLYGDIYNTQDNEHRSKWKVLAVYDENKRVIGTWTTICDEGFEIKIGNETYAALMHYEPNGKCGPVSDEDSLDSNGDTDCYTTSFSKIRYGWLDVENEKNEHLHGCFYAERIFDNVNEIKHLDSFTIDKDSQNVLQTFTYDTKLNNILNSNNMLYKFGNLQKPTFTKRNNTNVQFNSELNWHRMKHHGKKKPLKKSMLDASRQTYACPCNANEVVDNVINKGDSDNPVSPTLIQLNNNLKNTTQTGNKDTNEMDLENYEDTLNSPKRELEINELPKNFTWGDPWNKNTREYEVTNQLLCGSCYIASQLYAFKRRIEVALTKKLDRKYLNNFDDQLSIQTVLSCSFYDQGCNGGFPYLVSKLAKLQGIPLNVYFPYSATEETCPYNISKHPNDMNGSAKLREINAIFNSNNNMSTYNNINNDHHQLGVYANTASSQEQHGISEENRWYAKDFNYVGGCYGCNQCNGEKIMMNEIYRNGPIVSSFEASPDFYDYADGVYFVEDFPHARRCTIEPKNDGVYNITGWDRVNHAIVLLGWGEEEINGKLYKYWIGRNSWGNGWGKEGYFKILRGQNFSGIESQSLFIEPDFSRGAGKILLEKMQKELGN

Structure (SMILES) | % Inhibition @ 10 uM [%]
CCN1CCc2nc(SCC(=O)Nc3ccc(OC)cc3)c(C#N)cc2C1 | -8.15
CC1CCc2c(sc3nc(SCC(N)=O)n(-c4ccccc4)c(=O)c23)C1 (stereo not shown) | -2.89
Cc1cccc(CCNC(=O)C2CCN(S(=O)(=O)c3ccc(-n4cnnn4)cc3)CC2)c1 | -4.67
CCC(O)c1nc2ccccc2n1CCOc1ccc(Cl)c(C)c1 (stereo not shown) | 6.7
N#Cc1cccc(NC(=O)Cc2cccc3ccccc23)c1 | -4.14
CCOC(=O)C1=C(C)N=c2s/c(=C\c3c[nH]c4ccccc34)c(=O)n2C1c1ccc(OC)cc1 (stereo not shown) | 4.97
COc1ccc(OC)c(CN2CCN(Cc3ccccc3Cl)CC2)c1 | -8.78
Cc1ccc2nc3c(O)n(CC(=O)NCCCN(C)Cc4ccccc4)ncc-3c2c1 | -2.34
N=C(Nc1ccc2ccc3cccnc3c2n1)c1ccccn1 | 1.43
CC(=O)CCS(=O)(=O)c1ccc(Br)cc1 | -3.82
Cc1ccc(CNC(=O)c2ccc(COc3ccc(F)cc3)o2)cc1 | -6.68
COC(=O)c1sccc1NC(=O)Nc1cn(CC(C)C)c(=O)c2ccccc12 | 2.57
Fc1ccccc1N1CCN(Cc2ccc(-c3ccccc3)cc2)CC1 | 4.57
Cn1cccc1Cc1nnc(SCC(=O)N2CCOCC2)n1-c1ccc(Cl)cc1 | -3.1
Cc1cc(C)c2c3c(sc2n1)C(c1ccc(Cl)cc1)C(C#N)=C(N)O3 (stereo not shown) | -0.305
CCN1CCN(CCCNC(=O)C(NC(=O)C2CCC(C)CC2)C(C)C)CC1 (stereo not shown) | -5.67
O=C1c2cccc3cccc(c23)C(=O)N1Cc1cccnc1 | -6.02
COc1ccc(Cl)cc1C1=N/C(=C\c2coc3ccccc3c2=O)C(=O)O1 | -0.48
CCOC(=O)C1=C(C)N=c2s/c(=C\c3ccc(N(CC)CC)cc3)c(=O)n2C1c1ccc(C)cc1 (stereo not shown) | 1.72
CC1=C(C(=O)Nc2ccccc2C)C(c2cccnc2)n2ncnc2N1 (stereo not shown) | -3.67
CCC(C)NC(=O)CCc1c(C)nc2c(c(C)nn2-c2ccccc2)c1C (stereo not shown) | 0.953
N#Cc1c(N)nc2c(c1-c1ccccc1Cl)CCCC2 | 1.26
NC(=O)C1CCN(C(=O)c2ccc(CSc3nc4cccnc4n3Cc3ccccc3)cc2)CC1 | -0.878
CC(C)=CCC[C@H](C)CCN1CCC(C(N)=O)CC1 | -1.21
CCOC(=O)C(C(=O)OCC)c1ccc2cccc(O)c2n1 | -3.16

Structure (SMILES) | % Inhibition @ 10 uM [%]
CCc1ccc(CNCCCSc2nnnn2-c2ccccc2)cc1 | 0.596
N#CCCN1CCN(S(=O)(=O)c2ccc(C#N)cc2)CC1 | -3.64
CCOC(=O)c1sc(NC(=O)c2ccccc2F)nc1C | 23.6
Cn1cc(NC(=O)N2CCN(C(=O)c3ccco3)CC2)c2ccccc2c1=O | 9.21
CC(=O)Nc1ccc(S(=O)(=O)Nc2ccc(S(=O)(=O)N3CCc4ccccc43)cc2)cc1 | 5.87
O=C(Cc1ccc(F)cc1)Nc1ccc(C(=O)c2ccccc2)cc1 | 5.66
C(=N/n1cnnc1)/c1cccnc1 | 4.67
COc1ccc(-n2nnc(-c3nsc(NC(=O)c4ccccc4)n3)c2C)cc1 | 1.26
Cc1ccc(NC(=O)c2cc(-c3ccc(C)o3)nc3ccccc23)nc1 | 3.72
CCCOc1ccc(-c2cnc(S)nc2N)cc1 | 6.82
O=S1(=O)N=C(OCc2ccccc2)c2ccccc21 | 5.35
COc1cccc(/C=C2/SC(Nc3ccccc3O)=NC2=O)c1 | 0.361
O=[N+]([O-])c1ccc(-c2cnc(N3CCOCC3)nc2)cc1 | -0.636
O=C1NC(=O)C(=Cc2cccc(OCc3ccc(Cl)c(Cl)c3)c2)C(=O)N1 | 3.04
CCC(NCc1cccnc1)c1ccc(OC)c(OC)c1 (stereo not shown) | -6.94
O=C(CN1C(=O)c2ccccc2C1=O)Nc1ccc2c(c1)OCO2 | 5.04
O=C(/C=C\Nc1ccc(Br)cc1)c1cccnc1 | 3.05
COCCN1C(=O)C(O)=C(C(=O)c2ccccc2)C1c1ccccc1F (stereo not shown) | 3.04
CCc1nn(C(CC)C(=O)NCCCN2CC(C)CC(C)C2)c(=O)c2cc3oc(C)cc3n12 (stereo not shown) | 1.8
CN(CC(=O)N1CCc2ccccc2C1)S(=O)(=O)c1ccc2[nH]c3c(c2c1)CCCC3 | 0.174
CCOC(=O)/C=C(\C)N1N=C2c3ccc(OC)cc3CCC2C1c1ccc(OC)cc1 (stereo not shown) | 60.6
C=CCN1C(=O)S/C(=C/c2cc(Cl)c(OC)c(OC)c2)C1=O | 3.93
CC12CN(S(=O)(=O)c3ccccc3)CC(C)(CN(S(=O)(=O)c3ccccc3)C1)C2 | 1.62
C(=C\c1cccs1)/c1ccccn1 | -6.28
O=c1c(CN2CCSCC2)coc2ccccc12 | -1.04

Structure (SMILES) | % Inhibition @ 10 uM [%]
CCCCC(=O)Nc1c(C)c(CC)nc2ccccc12 | 0.266
CCN1CCCC1CNC(=O)c1noc2c1COc1ccc(C)cc1-2 (stereo not shown) | 0.867
CC(C)C/N=C/C1=C(O)CC(C)(C)CC1=O | -0.48
O=C(CSc1c2c(nc3ccc(Cl)cc13)CCCC2)NCC1CCCO1 (stereo not shown) | -6.89
CCn1c(C)c(C2=CCN(S(=O)(=O)c3ccc(OC)c(OC)c3)CC2)c2ccccc21 | 2.34
COc1cc2c(cc1OC)C(COc1cccc(C(F)(F)F)c1)N(C(=O)C1CC1)CC2 (stereo not shown) | 0.0904
COc1cccc(/C=C2\C(=O)C(=O)c3ccccc32)c1 | -2.28
COc1ccc(C(=O)Nc2ccc(F)cc2)cc1 | 1.91
CCc1ncc(C(O)c2ccccc2)n1C (stereo not shown) | -5.94
Cc1ccc(OCc2nc(C#N)c(N3CC(C)CC(C)C3)o2)cc1 (stereo not shown) | -2.75
Cc1noc(/C=C/N(C)C)c1S(=O)(=O)N1CCC2(CC1)OCCO2 | 11.4
COc1ccc(N(CC(=O)Nc2cc(Cl)cc(Cl)c2)S(=O)(=O)c2ccccc2)c(OC)c1 | -4.43
COc1ccc(CN2CCCCCCC2)cc1C | 5.32
Cc1ccccc1OCC(=O)Nc1ccc(N2CCN(C(=O)C(C)C)CC2)c(Cl)c1 | 0.145
Cc1ccc(CNC(=O)C2CCC(C/N=c3/c(N4CCCCC4)c(O)c3=O)CC2)cc1 (stereo not shown) | -5.81
Cc1ccc(N(CC(N)=O)C2SC(=O)N(Cc3cccc(C(=O)O)c3)C2=O)cc1 (stereo not shown) | 6.1
C=CCOc1ccccc1CN1CCC(Cc2ccccc2)CC1 | 5.61
Cc1ccc(-n2c(SCc3ccccn3)nc3nnc(C)c-3c2N)cc1Cl | -3.93
CCN(CC)CCN(C)Cc1c(Cl)cccc1Cl | -3.8
O=C(N[C@@H](Cc1ccc2ccccc2c1)C(=O)N[C@@H](CCc1ccccc1)C(=O)c1nc2ccccc2o1)C1CCNCC1 | 1.35
CCOC(=O)C1=C(CN(C)Cc2ccccc2)NC(=O)NC1c1cccs1 (stereo not shown) | 1.44
OC1CCCN(Cc2cccnc2)C1 (stereo not shown) | -4.5
CC12CCC(C(=O)NCc3ccc4c(c3)OCO4)(C(=O)C1=O)C2(C)C (stereo not shown) | -7.9
Cc1ccc(C2=NN(c3nc(-c4ccc(Cl)cc4)cs3)C(c3ccc(Cl)cc3)C2)cc1 (stereo not shown) | 2.91
COc1cccc(CNCc2ccc(C(=O)O)s2)c1 | -0.637

Structure (SMILES) | % Inhibition @ 10 uM [%]
COc1ccc(NC2C3CC4CC(C3)CC2C4)cc1OC (stereo not shown) | -7.87
Cc1nn2c(N)c(-c3ccc(Cl)cc3)cnc2c1-c1ccccc1 | 4.11
CCc1ccccc1NC1=C(Cl)C(=O)N(Cc2ccccc2)C1=O | -2.46
CCCCOC(=O)c1ccc(CC(=O)c2ccc(O)cc2O)o1 | -1.29
Clc1ccc(CNc2nc(N3CCCC3)nc(N3CCCC3)n2)cc1 | -2.72
Cc1cccc(OCCCc2c(C)n[nH]c2C)c1C | 1.74
Cc1cccc(CCNC(=O)[C@@H](c2ccccc2)N2Cc3ccccc3C2=O)c1 | -6.03
CC(C)CC(NC(=O)c1ccccc1C(F)(F)F)C(=O)NCC#N (stereo not shown) | -6.68
Cn1nc(-c2ccccc2F)c2cc(C(=O)NCCCN3CCCC3=O)sc21 | -3.23
COc1ccc2[nH]cc(CCNC(=O)C3CCN(c4cnccn4)CC3)c2c1 | -4.71
CC(C)C(=O)Nc1ccc(NC(=O)c2ccccc2Br)cc1 | 1.64
O=C(O)c1cc(-c2ccccc2Cl)nc2ccccc12 | 1.4
N#CC1=C(N)N(c2cccnc2)C2=C(C(=O)CC(c3ccccc3)C2)C1c1cccc(Br)c1 (stereo not shown) | 3.79
CCc1cc2c(N3CCN(C)CC3)ncnc2s1 | -7.6
O=C(C1=C(O)C(=O)N(c2ccccn2)C1c1ccccc1)c1cccs1 (stereo not shown) | -0.0619
NC(=O)C1CCN(c2c(C(=O)c3ccccc3)cnc3ccc(F)cc23)CC1 | -4.34
CCNS(=O)(=O)c1ccc(NC(=O)c2ccc(Cn3nc(C)cc3C)o2)cc1 | -2.6
COc1ccc(CNC(=O)c2cc(S(=O)(=O)N3CCCC3)c[nH]2)cc1 | -4.99
COc1cc(CNc2ccc(F)cc2)ccc1OCC(=O)NC(C)(C)C | 1.64
O=C(CCN1C(=O)c2ccccc2C1=O)Nc1ccccc1Oc1ccccc1 | -2.68
O=C(NCc1cccs1)C1CC(=O)N(c2ccccc2)C1 (stereo not shown) | -4.7
CC(C)N1CSCC1COc1cccc2ccccc12 (stereo not shown) | 0.635
COc1cc2oc3ccccc3c2cc1N(CC(=O)N1CCCCC1)S(=O)(=O)c1ccccc1 | 0.231
Cc1ccnc2nc(NC(=O)C3CCCO3)nn12 (stereo not shown) | 2.05
CCC[C@H](NC(=O)C1(NC(=O)N2CCN(C(C)(C)C)CC2)CCCCC1)C(=O)c1nnc(COC)o1 | -10.1
